Data published in PMC6165534, “Inhibition of Homophilic Interactions and Ligand Binding of the Receptor for Advanced Glycation End Products by Heparin and Heparin-Related Carbohydrate Structures” (Medicines, 2018).

Columns and labels:
[1] = biological target: T1, Advanced glycation end product bovine serum albumin (bovine, UniProt P02769, advanced glycation end products (sites not given)); assay: ELISA; Maxisorb wells coated with 20 μg/mL AGE-BSA, blocked with BSA; sRAGE–Ig 0.1 μg/mL with various amounts of glycyrrhizin; HRP goat anti-human IgG, absorbance at 450 nm; conditions: both partners purified
T1 construct: bovine serum albumin, glycated to AGE-BSA; also called AGE-BSA; source: produced as described [35]
T1 sequence (P02769 25-607): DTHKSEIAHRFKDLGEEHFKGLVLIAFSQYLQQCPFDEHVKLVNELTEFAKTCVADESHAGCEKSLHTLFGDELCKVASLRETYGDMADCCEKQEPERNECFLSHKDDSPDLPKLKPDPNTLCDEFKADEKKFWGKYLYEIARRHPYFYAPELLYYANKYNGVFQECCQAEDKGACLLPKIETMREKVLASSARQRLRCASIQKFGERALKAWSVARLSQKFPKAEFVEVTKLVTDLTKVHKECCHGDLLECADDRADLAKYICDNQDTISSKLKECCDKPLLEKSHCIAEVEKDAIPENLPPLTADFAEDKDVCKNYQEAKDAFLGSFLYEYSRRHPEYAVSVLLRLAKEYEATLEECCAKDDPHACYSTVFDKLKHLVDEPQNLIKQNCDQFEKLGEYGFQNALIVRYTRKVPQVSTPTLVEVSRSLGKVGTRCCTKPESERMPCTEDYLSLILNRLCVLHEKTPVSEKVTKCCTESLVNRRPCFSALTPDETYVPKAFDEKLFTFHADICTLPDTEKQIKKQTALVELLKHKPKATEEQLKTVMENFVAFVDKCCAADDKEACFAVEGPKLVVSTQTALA

[2] = biological target: T2, Biotinylated amyloid β 1–42 peptide (UniProt P05067 in part, biotin (site not stated)); assay: ELISA; sRAGE Ig-fusion protein (5 mg/mL as printed) bound to protein A coated Maxisorb wells, blocked with BSA; biotinylated ligand 20 nM with or without carbohydrate inhibitors; streptavidin-HRP, absorbance at 490 nm; conditions: both partners purified
T2 construct: amyloid β peptide 1–42, cut product of the amyloid precursor protein; numbers count on: the peptide; also called amyloid β-peptide; Amyloid β peptide 1–42; source: bought: American Peptide

[3] = biological target: the molecule itself; assay: bead aggregation assay; monomeric fluorescent protein A coated beads incubated with 10 μg/mL of the Ig-fusion proteins, no other exogenous ligands; aggregation followed by fluorescence microscopy, index Nt/N0, pictures after 60 min

binding result [1]: binds
binding result [2]: binds
B1: Full length extracellular human RAGE (sRAGE) Ig-fusion protein (Fc fusion)
chain: not shown
notes: receptor for advanced glycation end products (RAGE), human, full length extracellular part, […]; also called soluble RAGE; full-length sRAGE–Ig fusion protein; source: Drosophila S2 cells, purified (protein A-agarose chromatography)
binding result [3]: binds
